# Data reported in PubChem BioAssay AID624417 (National Center for Advancing Translational Sciences (NCATS), 2012).
# Out of some 410,000 compounds screened, about 6,400 (1.6%) were called active. The shares of active, inactive and inconclusive entries below differ from those in the screen. Calls follow the shape of the dose curve; as a rule, active = well fitted inhibition curve with a large enough effect; inconclusive = small, poorly fitted or top-dose-only effect; inactive = no such curve, though single readings can be large or run the other way. No potency is given beside an inconclusive call; the fits are too rough.
# Target: Glucagon-like peptide 1 receptor (Homo sapiens) (UniProt P43220)
# Chain of UniProt P43220 (P43220 whole entry, looked up): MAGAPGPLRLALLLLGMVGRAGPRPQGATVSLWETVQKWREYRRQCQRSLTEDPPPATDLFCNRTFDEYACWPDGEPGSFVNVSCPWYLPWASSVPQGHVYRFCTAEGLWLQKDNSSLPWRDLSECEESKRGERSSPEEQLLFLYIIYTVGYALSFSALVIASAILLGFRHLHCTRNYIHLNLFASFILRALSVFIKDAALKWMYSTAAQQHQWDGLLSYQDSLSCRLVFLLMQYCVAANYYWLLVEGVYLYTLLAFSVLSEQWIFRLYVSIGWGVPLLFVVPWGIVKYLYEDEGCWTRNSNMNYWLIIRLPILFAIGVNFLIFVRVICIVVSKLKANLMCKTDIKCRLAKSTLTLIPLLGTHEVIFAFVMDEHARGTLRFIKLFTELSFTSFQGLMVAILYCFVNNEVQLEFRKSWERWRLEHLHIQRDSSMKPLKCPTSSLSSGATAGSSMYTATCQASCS
# Test: qHTS of GLP-1 Receptor Inverse Agonists (Inhibition Mode); also: nearly all actives have a fitted effect of over 55% in size
# Settings: HEK293 GLP-1R CRE-luciferase, luminescence, 24 h, GLP-1R form is constitutively active; activity change, negative = inhibition: at 38.3 µM (top of the series) unless noted
# Outline: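 Using stably transfected HEK293 (constitutively active GLP-1R, cAMP-luciferase reporter), compounds were incubated 24 hr and luciferase measured by luminescence.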
# % is scaled to controls: 0 for no effect and ±100 for the full control effect; potency is read from the fitted curve at half-maximal effect; tags tell the direction and shape of the fitted curve.
SMILES,"activity change, negative = inhibition",Potency
Cc1cccc(NC(=O)COc2ccc(/C=N\n3cnnc3)cc2)c1,inactive: 18.8%,–
COc1ccc(OC)c(CNc2nc3ccccc3n2CCN2CCCCC2)c1,inactive: -10%,–
CCN(c1ccccc1)S(=O)(=O)c1cc(C(=O)NCc2ccco2)ccc1C,–,"inconclusive [inhibitor, single point]"
CCOc1ccc(N=C2NC(=O)S/C2=C\c2ccc(N(C)C)cc2)cc1,inactive: 2.36%,–
O=C(CN1C(=O)CSc2ccc(S(=O)(=O)N3CCCCC3)cc21)NCc1ccc(F)cc1Cl,–,"inconclusive [inhibitor, partial curve, poor fit]"
O=C(NCc1ccco1)c1ccc2c(c1)N(Cc1ccc(F)cc1)C(=O)c1ccccc1S2=O (stereo not given),–,"inconclusive [inhibitor, single point]"
Cc1ccc(-c2csc(C(O)c3ccccc3)n2)cc1C (stereo not given),–,"inconclusive [inhibitor, single point]"
COc1cccc(C(=O)CN2CCN(S(=O)(=O)c3ccc(Cl)cc3)CC2)c1,inactive: 4.4%,–
CC(C)(C)Sc1ccc2nc3c(n2c1)CCCC3,–,active: 10 µM
CC(C)n1cnnc1SCC(=O)Nc1ccc(N2CCCCC2)cc1,inactive: 0.498%,–
c1ccc(-c2ncnc3cc4n(c23)CCC4)cc1,inactive: 49.6%,–
CC(=O)Nc1ccc(Nc2cc(C)nc3c(-c4ccc(Cl)cc4)c(C)nn23)cc1,–,"inconclusive [inhibitor, single point]"
CSc1ccc(CN(C)C(=O)C(Cc2ccccc2)NC(=O)c2ccccc2)cc1 (stereo not given),–,"inconclusive [inhibitor, single point]"
CC(Oc1ccccc1)C(=O)N1CCN(c2ccc(N3CCCCCC3)nn2)CC1 (stereo not given),–,"inconclusive [inhibitor, partial curve, poor fit]"
Clc1cccc(N2CCN(c3nnnn3-c3ccccc3)CC2)c1,–,"inconclusive [inhibitor, partial curve, poor fit]"
COc1cccc(Cc2nc3ccccc3nc2SCC(=O)N2CCCCC2C)c1 (stereo not given),–,"inconclusive [inhibitor, single point]"
CCOC(=O)c1c(-c2ccc(C)o2)csc1NC(=O)CN1CCN(CC)CC1,inactive: 0%,–
COc1ccc(C)cc1Nc1n[n+](-c2ccccc2)c(-c2ccc(C(=O)O)cc2)s1,inactive: 6.17%,–
CCOC(=O)c1c(C)nc(SC)c(C#N)c1-c1ccccc1,inactive: -23.8%,–
CCOC(=O)c1ccc(-c2c(-c3ccccc3OC)sc3cc4c(cc23)OCO4)cc1F,–,"inconclusive [inhibitor, single point]"
O=C1CCCCC1(c1ccccc1)c1ccccc1,–,"inconclusive [inhibitor, single point]"
Cc1ccc(C2=NOC(C)(c3nnc(-c4ccc(Cl)cc4)o3)C2)cc1 (stereo not given),inactive: 6.57%,–
CN(Cc1ccccc1F)C(=O)CCCNC(=O)c1ccc(Cl)cc1,–,"inconclusive [inhibitor, single point]"

SMILES,"activity change, negative = inhibition",Potency
CC(=O)c1sc(NC(=O)C=C(C)C)nc1C,inactive: -6.43%,–
O=C1NC[C@H](Cc2ccccc2)N(CC2CCN(CCC34CC5CC(CC(C5)C3)C4)CC2)C1=O,–,"inconclusive [inhibitor, single point]"
Cc1nn(CCC(=O)NC(C)C)c(=O)c2nn(-c3ccccc3)c(C)c12,inactive: -7.07%,–
COc1ccccc1NC(CC(=O)c1ccccc1)C(=O)OCC(=O)c1ccc(Br)cc1 (stereo not given),–,"inconclusive [inhibitor, single point]"
O=C(COn1nnc2ccc(S(=O)(=O)N3CCOCC3)cc21)NCCc1ccccc1,inactive: 19.5%,–
CCCC(C)C(=O)Nc1nc(C)c(-c2csc(Nc3ccccc3OC)n2)s1 (stereo not given),inactive: 2.42%,–
CCCCNC(=O)c1nc(C2CCN(S(=O)(=O)c3cccc(C(F)(F)F)c3)CC2)oc1-c1ccccc1,–,"inconclusive [inhibitor, partial curve, poor fit]"
CCN(CC)CCCN(Cc1cc2cc(OC)ccc2[nH]c1=O)C(=O)Nc1ccc(F)cc1,–,active: 4.47 µM
CS(=O)(=O)N(CCc1ccccc1)CC(=O)N1CCN(Cc2ccccc2)CC1,–,"inconclusive [inhibitor, single point]"
Cc1ccccc1NS(=O)(=O)c1ccc(C(=O)NCc2ccccc2CN2CCCC2)cc1,–,"inconclusive [inhibitor, partial curve, poor fit]"
CCCCCn1c(=O)[nH]c2cc(C(=O)N3CCN(c4ccc(F)cc4)CC3)ccc2c1=O,–,"inconclusive [inhibitor, full curve, poor fit]"
Cc1ccc(C)n1-c1nn(S(=O)(=O)c2ccccc2)c2cccc(F)c12,–,"inconclusive [inhibitor, single point]"
O=S(=O)(NCC(Nc1ccccc1)c1ccccc1)c1ccc(Cl)cc1 (stereo not given),–,"inconclusive [inhibitor, single point]"
CCCCCCCCCn1c2c(c(=N)c3c1CCC3)CCCC2,–,"inconclusive [inhibitor, partial curve, poor fit]"
CCN(C(=O)CSc1nc(C)nc2sc(C)c(C)c12)c1ccc(F)cc1,inactive: -1.18%,–
Cn1c(/C=C/c2ccc(Br)cc2)c([N+](=O)[O-])c(=O)n(C)c1=O,–,active: 4.47 µM
Cc1cccc(NCc2ccccc2O)c1,–,"inconclusive [inhibitor, single point]"
CCOc1ccccc1NC(=O)COC(=O)/C=C/c1cccs1,–,"inconclusive [inhibitor, partial curve, poor fit]"
CC1C(=O)N(Cc2cn(CC3CCCCC3)nn2)CCS(=O)(=O)N1Cc1ccc(-c2ccccc2)cc1 (stereo not given),–,"inconclusive [inhibitor, single point]"
COc1ccc(CCN(C(=O)C(F)(F)F)C(C(=O)NC2CCCC2)c2cccs2)cc1 (stereo not given),–,"inconclusive [inhibitor, single point]"
CC(C)c1ccc(C2=CC(c3cccc(Cl)c3)n3ncnc3N2)cc1 (stereo not given),–,"inconclusive [inhibitor, single point]"
CCCN1C(C(=O)c2ccccc2)=C(OC(=O)c2ccc(F)cc2)c2ccccc2S1(=O)=O,–,"inconclusive [inhibitor, partial curve, poor fit]"
